This is an account of results in US20220340685A1, “COMBINATION THERAPY WITH ENTPD2 AND CD73 ANTIBODIES” (Novartis AG, priority 2019, published 2022).

Read-outs that look alike come from different tables or passages of the source.

The nature of data set [1]: Anti-drug antibody (ADA) formation in cynomolgus monkey PK study. Format: in vivo. The conditions noted are these: male cynomolgus monkeys, 3, 10, 30 and 100 mg/kg i.v. An excerpt:
Anti-drug antibody (ADA) formation was also examined in this study.

The conditions of data set [2]: cynomolgus monkey, in vivo, iv.

B1: mAb1: humanized anti-human ENTPD2 human IgG1 antibody derived from mAb17; heavy chain SEQ ID NO: 12, light chain SEQ ID NO: 23 (antibody)
heavy: EVQLVQSGAEVKKPGESLKISCKASGYTFTDYNMDWVRQMPGKGLEWMGDINPKYDISTYNQQFKGQVTISADKSIRTAYLQWSSLKASDTAMYYCARRGFFLYYGINYYYFDVWGQGTLVTVSSASTKGPSVFPLAPSSKSTSGGTAALGCLVKDYFPEPVTVSWNSGALTSGVHTFPAVLQSSGLYSLSSVVTVPSSSLGTQTYICNVNHKPSNTKVDKRV[left out - human IgG1 Fc]
light: DIQLTQSPSSLSASVGDRVTITCSASSSVSYIHWFQQKPGKAPKLLIYSTSNLASGVPSRFSGSGSGTFFTLTISSLQPEDFATYFCHQWSSYPWTFGQGTKVEIKRTVAAPSVFIFPPSDEQLKSGTASVVCLLNNFYPREAKVQWKVDNALQSGNSQESVTEQDSKDSTYSLSSTLTLSKADYEKHKVYACEVTHQGLSSPVTKSFNRGEC
As to B1, in data set [1], the “anti-drug antibody (ADA) detection” value was “detected in one (10 mg/kg) of nine animals”. The “AUC (0-336 h)/D” value is on record as 3′160 μg * h/mL/mg/kg in data set [2], 1′894 μg * h/mL/mg/kg in data set [2] (3 mg/kg) and 3′145 μg * h/mL/mg/kg in data set [2] (30 mg/kg). Also, the “AUC (0-inf)/D” value in data set [2] is 4′083 μg * h/mL/mg/kg; in data set [2] (3 mg/kg), 2′042 μg * h/mL/mg/kg; in data set [2] (30 mg/kg), 3′811 μg * h/mL/mg/kg.
